# Measured values taken from publication PMC6919601, “Identification of Plasmodium dipeptidyl aminopeptidase allosteric inhibitors by high throughput screening” (PLoS ONE, 2019).
# Among all 110,000 compounds or so, about 230 (0.21%) showed an effect of 50% or more. The list shows a part of the results.
# Molecular target: DPAP1 (Plasmodium falciparum, UniProt Q8IIJ9)
# Assay: primary screen, percent inhibition; read by cleavage of a fluorogenic dipeptide substrate; higher = more effect of the substance
# Design: species or system P. falciparum D10 trophozoite lysates; single well
# 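Further: 30 min substrate incubation versus DMSO and 10 µM JCP410 controls.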
# DPAP1, sequence (Q8IIJ9 whole entry, looked up): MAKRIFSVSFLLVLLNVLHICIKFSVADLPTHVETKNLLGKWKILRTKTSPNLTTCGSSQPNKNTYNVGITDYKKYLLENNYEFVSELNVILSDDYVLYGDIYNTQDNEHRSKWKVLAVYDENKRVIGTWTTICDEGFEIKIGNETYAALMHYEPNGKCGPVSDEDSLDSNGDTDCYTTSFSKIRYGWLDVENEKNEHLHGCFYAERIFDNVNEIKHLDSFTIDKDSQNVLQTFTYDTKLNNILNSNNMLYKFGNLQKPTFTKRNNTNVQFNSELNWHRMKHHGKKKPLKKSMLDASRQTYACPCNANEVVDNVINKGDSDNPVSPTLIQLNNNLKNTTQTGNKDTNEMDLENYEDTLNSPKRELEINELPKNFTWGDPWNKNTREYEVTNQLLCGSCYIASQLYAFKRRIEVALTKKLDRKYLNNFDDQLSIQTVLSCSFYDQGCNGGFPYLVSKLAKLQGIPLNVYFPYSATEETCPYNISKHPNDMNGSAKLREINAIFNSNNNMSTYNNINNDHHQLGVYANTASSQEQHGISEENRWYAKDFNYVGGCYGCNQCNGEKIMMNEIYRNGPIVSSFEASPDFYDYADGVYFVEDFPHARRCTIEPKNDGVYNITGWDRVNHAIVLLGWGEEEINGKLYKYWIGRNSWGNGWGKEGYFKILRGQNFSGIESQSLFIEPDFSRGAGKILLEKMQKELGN
row,Compound,% Inhibition @ 10 uM [%]
1,Cc1cc(NS(=O)(=O)c2ccc(NC(=O)c3ccco3)cc2)no1,-0.759
2,CC(=O)N1CCC(=O)N(Cc2ccccc2)c2ccccc21,-6.43
3,CC1=NN(c2nc3ccccc3[nH]2)C(=O)C1CCC(C)C (stereo not shown),-3.33
4,Cc1ccc(C)c(CN2CCCN(C(=O)Cn3ncc4c3-c3ccccc3OC4)C2)c1,-0.692
5,CCCn1c(=O)c(C(=O)Nc2nc(-c3ccc(Br)cc3)cs2)c(O)c2ccccc21,-4.91
6,CC(C)Cn1c(CN2CCN(C)CC2)nc2c1c(=O)n(C)c(=O)n2C,-5.1
7,COC(=O)c1cccnc1-n1c(=O)c2cccnc2n(Cc2cccc(OC)c2)c1=O,2.83
8,CCCN1CCN(C(=O)CCc2c(C)n(CC)c3cc(-c4ccccc4OC)nn3c2=O)CC1,-6.09
9,CCN(CC)CCN(C)Cc1cccc(O)c1,-1.5
10,O=C(O)/C(Cl)=C(Cl)/C=N/c1nc[nH]n1,4.95
11,OC12CCCCC1C(c1cccc(Oc3ccc(Cl)cc3)c1)NCC2 (stereo not shown),-5.48
12,Cc1cc(N2CCN(C(=O)c3ccco3)CC2)n2ncnc2n1,-4.03
13,Cc1cccc(N(CN2C(=O)C3C4C=CC(C5CC45)C3C2=O)C(=O)c2ccccc2)c1 (stereo not shown),1.61
14,CC(=O)Nc1ccc(NC(=O)c2cccc(Cl)c2)cc1,-5.07
15,CC(=O)NS(=O)(=O)c1ccc(-c2ccc(/C=C3/C(=O)N(C)C(=O)C(C#N)=C3C)o2)cc1,5.75
16,Cc1ccc2[nH]c3c(c2c1)CCCCC3O (stereo not shown),3.76
17,O=C(N/C(=C/c1ccc2c(c1)OCO2)C(=O)N1CCCC1=O)c1ccco1,1.63
18,OCCN1CCN(C2C3CC4CC(C3)CC2C4)CC1 (stereo not shown),1.57
19,O=C(NCC1CCCO1)C1CCN(S(=O)(=O)c2ccc(F)cc2)CC1 (stereo not shown),3.47
20,COc1ccccc1-c1cc(N)n(S(=O)(=O)c2cc(Cl)sc2Cl)n1,1.15
21,O=C(CCCN1CCc2ccccc2C1)c1ccc(F)cc1,-7.18
22,Cc1nc(N2CCN(c3ccccn3)CC2)c2c(C)c(C(=O)NC3CCCCCC3)sc2n1,-3.21
23,COCCCNC(=O)C1CCCN(S(=O)(=O)c2c(C)noc2/C=C/c2cccs2)C1 (stereo not shown),0.0579
24,O=C(NCc1ccccc1)c1cc(S(=O)(=O)N2CCOCC2)c(Cl)cc1Cl,-0.769
25,Cc1nn(CC(=O)N2CCc3ccccc3C2)c(C)c1Cl,0.883

row,Compound,% Inhibition @ 10 uM [%]
1,COc1cc2c(cc1OC)C(C(=O)N1CCC3(CC1)OCCO3)C(c1cccs1)N(C)C2=O (stereo not shown),2.59
2,CC(=O)c1c(C)oc2ccc(N(C(C)=O)S(=O)(=O)c3ccc(C)cc3C)cc12,-9.02
3,O=C(NC1CCCc2ccccc21)C1CCN(c2nnc(-n3cccc3)s2)CC1 (stereo not shown),4.33
4,O=C(O)c1ccccc1NC(=O)c1ccc([N+](=O)[O-])cc1[N+](=O)[O-],-5.35
5,Cc1noc(/C=C/c2ccco2)c1S(=O)(=O)N1CCC(C(=O)NC2CCCC(C)C2C)CC1 (stereo not shown),-6.89
6,CCc1cc2c(cc3c(=O)n(CC(=O)NCCc4ccc(Cl)cc4)nc(CC)n32)s1,1.68
7,CCCNC(=O)Cn1c(C(=O)OC)ccc1-c1ccco1,1.22
8,CCc1ccc(N2CC(C(=O)NC3CCCCC3C)CC2=O)cc1 (stereo not shown),0.83
9,CCCc1ccc(OCC(O)CN2CCCCC2)cc1 (stereo not shown),-2.15
10,CCOc1ccc(C(C)NC(=O)c2cccs2)cc1OCC (stereo not shown),2.17
11,Cc1cccc(NC(=O)C2CCN(S(=O)(=O)c3cccs3)CC2)n1,-5.52
12,CCOc1cc(/C=C/c2cc(C(F)(F)F)nc(O)n2)cc(Cl)c1O,3.76
13,COc1ccc(CNC(=O)C2CCN(S(=O)(=O)c3c[nH]cn3)CC2)cc1,1.23
14,COc1ccc(C[C@H](NC(=O)OCc2ccccc2)C(=O)NCC#N)cc1,-1.83
15,COc1ccc(-c2noc(CNC(=O)COc3ccc(Br)c(C)c3)n2)cc1,3.74
16,CCOC(=O)c1cnc2c(ccc3ccccc32)c1NCCOC(=O)c1cccs1,4.18
17,COc1cc(/C=c2\sc3nc4ccccc4n3c2=O)c(Br)cc1OCC(=O)O,13.5
18,O=C(Nc1ccc(S(=O)(=O)N2CCCCC2)cc1)c1ccc(Br)o1,0.658
19,Cc1nc2c(-c3ccccc3)c(C)nn2c(C)c1CC(=O)NCCN1CCOCC1,0.953
20,Cc1nc2c(C(=O)NCCN3CCOCC3)cnn2c(C)c1Cc1ccccc1Cl,-0.406
21,Cn1nnnc1SCCCNCc1ccc(-c2ccccc2)o1,5.39
22,CCC(C)NC(=O)c1cnn2c(C(F)F)cc(-c3ccc(C)cc3)nc12 (stereo not shown),-6.75
23,COc1cccc2c1OC1=C(C(=O)CC(C)(C)C1)C2CC(=O)c1ccc(F)cc1 (stereo not shown),-0.143
24,COc1ccc(CNC(=O)C2CC(=O)N(C3CCCC3)C2)cc1 (stereo not shown),2.18
25,CCOc1ccccc1NC(=O)c1ccc(-c2ccccc2)cc1,-4.72

row,Compound,% Inhibition @ 10 uM [%]
1,COc1ccc(NS(=O)(=O)c2ccc(Br)cc2)c(OC)c1,-12.5
2,O=C(O)c1cccc(N2C(=O)c3cccc([N+](=O)[O-])c3C2=O)c1,0.00784
3,O=C(Nc1ccccc1Oc1ccccc1)c1cnccn1,0.163
4,CCCCNC(=O)Cn1c(SCc2cccc(C)c2)nc2ccncc21,5.73
5,Nc1nnc(SCc2cc(=O)n3ccsc3n2)s1,-0.495
6,Oc1nc(S)nc2c1CN(Cc1ccc(F)cc1)CC2,2.97
7,COc1ccc2cc(-c3csc(NC(=O)CCC(=O)NCCN4CCCCC4C)n3)c(=O)oc2c1 (stereo not shown),4.49
8,O=c1ccc2nncn2[nH]1,-2.83
9,O=C(c1ccco1)N1CCN(C(=O)C(Cc2ccccc2)N2Cc3ccccc3C2=O)CC1 (stereo not shown),3.37
10,CCOc1ccccc1NC(=O)C1=C(C)NC(=O)NC1c1ccccc1C (stereo not shown),0.475
11,Cc1cc(Br)ccc1OCC(=O)NCC(C)C,4.75
12,Cc1[nH]c2ccc(C(=O)NCCCN3CCCC3=O)cc2c1C,-3.2
13,CCSc1nc(=O)c2c(n1C)NC(=O)CC2c1cccc(F)c1F (stereo not shown),2.25
14,O=S(=O)(c1cccc(S(=O)(=O)N(CCO)CCO)c1)c1ccc(Cl)c(Cl)c1,7.47
15,CC(=O)OCCn1ccc(=O)[nH]c1=O,1.13
16,N#CC1=C(N)N(c2ccc(F)cc2)C2=C(C(=O)CCC2)C1c1ccc(Br)s1 (stereo not shown),2.67
17,OCCn1c(-c2ccc(F)cc2)cs/c1=N\c1ccccc1,0.431
18,Cc1cc(C=C2C(=O)c3ccccc3C2=O)c(C)n1-c1ccc(F)cc1,3.04
19,Clc1ccc(-c2cc(-c3cc(-c4ccc(Cl)cc4)[nH]n3)[nH]n2)cc1,-0.902
20,CCN(CC)CCCNC(=O)CCC(=O)N1Cc2ccccc2Oc2ncccc21,4.52
21,COc1cc(C(=O)O)c(CNC(=O)CSc2nnnn2C)c(OC)c1OC,1.31
22,CC1(C)OC2c3ccccc3OC3(C)CCC1CC23 (stereo not shown),-1.8
23,CCCN1C(=O)S/C(=C\c2ccc(N3CCOCC3)cc2C)C1=O,9.94
24,CCC(C)NC(=O)Cn1cnc2scc(-c3ccc(C)cc3)c2c1=O (stereo not shown),-5.66
25,CCCc1nnc2sc(NC(=O)c3cccc(C)c3)nn12,1.68

row,Compound,% Inhibition @ 10 uM [%]
1,CCN(CC)C(=O)c1cc2c(Cl)nc3ccc(C)cc3c2s1,3.2
2,CC(C)C(NC(=O)CSc1ccc(Cl)cc1)C(C)C,-2.21
3,CCOC(=O)N1CCN(C(=O)/C(=C\c2cccs2)NC(=O)c2ccc(OC)c(OC)c2)CC1,0.484
4,COc1ccc2[nH]c3c(=O)n(CCCCCC(=O)N4CCCC4)c(=S)[nH]c3c2c1,10.2
5,CCOC(=O)c1c(C)nc(C)nc1N,0.937
6,C=CCNC(=O)c1ccccc1NC(=O)CN1C(=O)c2ccccc2S1(=O)=O,4.57
7,O=CN1CCN(CC2CC=CCC2)CC1 (stereo not shown),10.1
8,CC(C(=O)NCCCc1ccccc1)n1c2ccccc2c2cnnc(O)c21 (stereo not shown),-3.79
9,COc1ccc(CCc2nc(C)ccc2O)cc1OC,-6.59
10,CN(Cc1ccccc1)C(=O)CNS(=O)(=O)c1ccc(F)cc1,10.8
11,CCOC(=O)N1CCC(N2CCN(c3ccc([N+](=O)[O-])cc3)CC2)CC1,1.88
12,Cc1ccc(C2C=C(c3ccc(Br)cc3)Nc3ncnn32)c(C)c1 (stereo not shown),-1.62
13,CCN(Cc1ccccc1)C(=O)c1cccs1,3.53
14,COc1ccc(C2Oc3c(OC)cccc3C3CC(c4cccnc4)=NN32)cc1 (stereo not shown),-1.46
15,O=C(OCC1OC(n2ccc(=O)[nH]c2=O)C(O)C1O)c1ccccc1 (stereo not shown),-8.12
16,COC(=O)/C=C/CSc1nnc(-c2ccc(Cl)cc2Cl)o1,-0.703
17,Cc1ccc(C(=O)Nc2nc(-c3ccc(Br)cc3)cs2)o1,6.87
18,Cc1c(C(=O)NCc2ccnn2C)c(-c2ccccc2)nn1-c1ccccc1,5.31
19,CCOC(=O)N1CCN(C(=O)c2cc(-c3ccc(C)c(C)c3)nc3ccccc23)CC1,0.955
20,O=C(CCNc1c(N2CCCC2)c(=O)c1=O)N1CCCCC1,1.68
21,O=C(CCCc1ccccc1)Nc1ccc(Br)cc1,4.15
22,OC1CCN(Cc2ccc(F)c(Br)c2)CC1,0.605
23,CCCC(=O)Nc1ccc(N2CCOCC2)cc1,0.0504
24,Cc1ccccc1CS(=O)(=O)CCC(=O)NCc1ccc2c(c1)OCO2,-3.58
25,COc1ccc(Br)cc1CNC(=O)C1CCCN(S(C)(=O)=O)C1 (stereo not shown),0.514
